# Data reported in the supplement of paper PMC11741623.
# The other results are listed elsewhere or left out. Interaction screen of human proteins with wild-type SARS-CoV-2 proteins by split-DHFR complementation in yeast, 1 µg/mL methotrexate. Value = fitness of the pair (three or more lineages) minus that of the viral protein without a human partner, on a scale set by negative (0) and fused positive (1) controls, mean of up to three cultures; higher = more likely to interact. Active = false discovery rate below 0.05 (one-sided t-test) in at least one culture. Nearly all pairs are not hits, and differences among them are mostly noise (correlation between cultures about 0.3); most hits were seen in one culture only. Human sequences are the Swiss-Prot entries looked up by gene name; the clone may be another isoform. NSP2 values were corrected by the authors for a growth advantage. Listed are human proteins with a hit and a random twelfth of the others.
# B1: SLC7A13, Q8TCU3 (protein)
# chain: MDRGEKIQLKRVFGYWWGTSFLLINIIGAGIFVSPKGVLAYSCMNVGVSLCVWAGCAILAMTSTLCSAEISISFPCSGAQYYFLKRYFGSTVAFLNLWTSLFLGSGVVAGQALLLAEYSIQPFFPSCSVPKLPKKCLALAMLWIVGILTSRGVKEVTWLQIASSVLKVSILSFISLTGVVFLIRGKKENVERFQNAFDAELPDISHLIQAIFQGYFAYSGGACFTLIAGELKKPRTTIPKCIFTALPLVTVVYLLVNISYLTVLTPREILSSDAVAITWADRAFPSLAWIMPFAISTSLFSNLLISIFKSSRPIYLASQEGQLPLLFNTLNSHSSPFTAVLLLVTLGSLAIILTSLIDLINYIFFTGSLWSILLMIGILRRRYQEPNLSIPYKVFLSFPLATIVIDVGLVVIPLVKSPNVHYVYVLLLVLSGLLFYIPLIHFKIRLAWFEKMTCYLQLLFNICLPDVSEE
# B2: PTPLAD2, Q5VWC8 (protein)
# chain: MGPLALPAWLQPRYRKNAYLFIYYLIQFCGHSWIFTNMTVRFFSFGKDSMVDTFYAIGLVMRLCQSVSLLELLHIYVGIESNHLLPRFLQLTERIIILFVVITSQEEVQEKYVVCVLFVFWNLLDMVRYTYSMLSVIGISYAVLTWLSQTLWMPIYPLCVLAEAFAIYQSLPYFESFGTYSTKLPFDLSIYFPYVLKIYLMMLFIGMYFTYSHLYSERRDILGIFPIKKKKM
# B3: FMO2, Q99518 (protein)
# chain: MAKKVAVIGAGVSGLISLKCCVDEGLEPTCFERTEDIGGVWRFKENVEDGRASIYQSVVTNTSKEMSCFSDFPMPEDFPNFLHNSKLLEYFRIFAKKFDLLKYIQFQTTVLSVRKCPDFSSSGQWKVVTQSNGKEQSAVFDAVMVCSGHHILPHIPLKSFPGMERFKGQYFHSRQYKHPDGFEGKRILVIGMGNSGSDIAVELSKNAAQVFISTRHGTWVMSRISEDGYPWDSVFHTRFRSMLRNVLPRTAVKWMIEQQMNRWFNHENYGLEPQNKYIMKEPVLNDDVPSRLLCGAIKVKSTVKELTETSAIFEDGTVEENIDVIIFATGYSFSFPFLEDSLVKVENNMVSLYKYIFPAHLDKSTLACIGLIQPLGSIFPTAELQARWVTRVFKGLCSLPSERTMMMDIIKRNEKRIDLFGESQSQTLQTNYVDYLDELALEIGAKPDFCSLLFKDPKLAVRLYFGPCNSYQYRLVGPGQWEGARNAIFTQKQRILKPLKTRALKDSSNFSVSFLLKILGLLAVVVAFFCQLQWS
# Target: SARS-CoV-2 ORF9B
# Experiment: yeast fitness gain over the viral ORF with no human partner (scaled fitness); higher = more likely to interact
# Experimental: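 Split mouse DHFR complementation in pooled diploid yeast: human ORFeome clones carry one fragment and viral ORFs the other; barcoded lineages compete in 1 µg/mL methotrexate and fitness is read by barcode sequencing in up to three cultures.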
row,Binder,yeast fitness gain
1,B1,inactive: -0.252
2,B2,inactive: -0.0914
3,B3,inactive: -0.358
